The campaign covered roughly 50,000 compounds. About 800 (1.6%) showed an effect of 50% or more. The list shows a part of the results.

This assay addresses Bcl-2-like protein 10 (Homo sapiens) (UniProt Q9HD36). Nature of the assay: Phenotype converters, Bcl-B/TR3 peptide binding displacement, primary biochemical FP (AID 1240).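 Further: 0% = Bcl-B with tracer peptide and DMSO and 100% = tracer peptide lacking Bcl-B.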 Conditions: GST-Bcl-B / FITC-TR3 peptide fluorescence polarization; stronger effect = higher value; compound at 3.75 mg/L.
Chain of UniProt Q9HD36 (Q9HD36 whole entry, looked up): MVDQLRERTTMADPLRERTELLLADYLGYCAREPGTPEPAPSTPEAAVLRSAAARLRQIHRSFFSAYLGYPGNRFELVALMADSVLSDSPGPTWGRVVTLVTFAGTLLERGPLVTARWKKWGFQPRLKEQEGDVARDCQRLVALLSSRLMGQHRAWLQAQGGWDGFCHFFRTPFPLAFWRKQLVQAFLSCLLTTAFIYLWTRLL
`CCOC(=O)C1=C(N)Oc2cc(O)ccc2C1c1ccc(Cl)cc1` (stereo unspecified): the displacement is -54.9%. For `Cc1ccc(NC2CC(=O)N(c3ccccc3)C2=O)cc1` (stereo unspecified) the value was 9.6%; for `CC(=O)N1CCN=C1Nc1c(Cl)cccc1Cl`, 8.3%; for `CN1CCN(NC(=S)Nc2ccc(F)cc2)CC1`, -1%. Then `CCSc1nc2ccccc2n1C(=O)/C=C/c1ccc(OC)c(OC)c1`, with 11.3%; and `C=C(NC(C)=O)C(=O)c1ccc([N+](=O)[O-])cc1`, with 18.9%. Then `Cc1cc(C)cc(NC(=O)c2ccccc2Cl)c1`, with -0.9%; and `O=[N+]([O-])c1cccc(-c2noc(C34CC5CC(CC(C5)C3)C4)n2)c1`, with -5.9%. As for `Cc1ccc(C(O)(c2ccccc2)c2cnc(C(C)C)n2C)cc1` (stereo unspecified), the displacement is -11.1%. For `COc1c(Cl)ccc(Cl)c1C(=O)Nc1ccc(I)cc1` the value was -9.5%; for `CCCCOC(=O)c1ccc(NC(=O)CSc2nc3ccccc3o2)cc1`, 2.5%; for `C#Cc1cccc(NC(=O)c2ccc(-c3ccccc3)cc2)c1`, -1.7%. Then `CC(C)N1CCc2c(sc3nc(SCc4ccc(Cl)cc4)n(Cc4ccccc4)c(=O)c23)C1`, with 19.2%; and `COc1ccc(C(=O)Nc2nnc(-c3ccco3)s2)cc1`, with -0.9%; and `O=C(Nc1ccc(Cl)c(Cl)c1)Nc1nnc(Cc2cccc(Br)c2)s1`, with 4.5%. Then `O=C(/C=C/c1ccc(-c2ccccc2)o1)c1ccc(F)cc1`, with 54.3%; and `N#C/C(=N\Nc1ccccc1F)c1nc(-c2ccccc2)cs1`, with 7.2%. `Cc1ccc(NC(=O)Cn2c(-c3nonc3N)nc3ccccc32)cc1F`: the displacement was -1.2%.

As for `COc1ccc(-c2cc(=O)n3[nH]c(-c4ccccc4)c(C)c3n2)cc1`, the displacement is 6.1%.

`C(=N\N1CCN(c2ccccc2)CC1)/c1ccc(-c2ccccc2)cc1`: the displacement was -8%. For `Cc1ccc2nsnc2c1NC(=O)c1cccc(Br)c1` the value was -0.7%. As for `Cc1ccc(OCC(=O)NCc2ccccn2)c(Br)c1`, the displacement is -8.7%.

Turning to `CCOC(=O)c1c(NC=O)sc2c1CCC2`, the displacement is -2.1%.

Consider `COc1ccc(C2CC(=O)C3=C(C2)Nc2ccccc2NC3c2cc(F)ccc2F)cc1` (stereo unspecified), for which the displacement was -6%. For `Cc1cccc(C)c1NC(=O)c1ccc(I)cc1` the value was 9.3%; for `CC1=C(C(=O)OC(C)C)C(c2cccc(Br)c2)C2=C(CCCC2=O)N1` (stereo unspecified), 4.4%. As for `NC(=O)N/N=C(\C=C\c1ccccc1)C1(O)CCCCC1`, the displacement is -5.9%. Then `COc1ccc(Cc2noc(-c3ccc(C)cc3)n2)cc1`, with -6.9%; and `O=C(O)c1ccc(NC(=S)N/C(=N/S(=O)(=O)c2ccc(Cl)cc2)c2ccccc2)cc1`, with 11.4%. Then `Cc1ccc(C)c(OCC(=O)N/N=C/c2ccc(OC(=O)c3ccc4c(c3)OCO4)cc2)c1`, with 0.1%. As for `C=C(C)C(=O)Nc1cccc(C(=O)c2cccc(NC(=O)C(=C)C)c2)c1`, the displacement turned out to be 13.6%. Then `Cc1ccc(S(=O)(=O)N/N=C/c2cc(Br)cc(Br)c2O)cc1`, with 9.1%; and `CCOC(=O)c1cccc(N2C(=O)C3C4c5ccccc5C(CC)(c5ccccc54)C3C2=O)c1` (stereo unspecified), with -17.4%; and `Cc1ccc2[nH]c(C)c(CC(=O)N/N=C/c3ccc[nH]3)c2c1`, with 7.3%.

Take `Cc1ccc(CN2CCN(Cc3ccncc3)CC2)cc1`: the displacement came to 6.8%. For `O=S(=O)(NC1c2ccccc2Oc2ccccc21)c1ccccc1` the value was -0.2%. As to `CN1CCN(C(=O)c2cnn3c2NC(c2ccc(Br)cc2)CC3C(F)(F)F)CC1` (stereo unspecified), the displacement stood at 0.5%. For `COc1cc(/C=C2/SC(=S)N(C)C2=O)ccc1OCCOc1ccc(Br)cc1` the value was 2.3%; for `CCOc1ccc(/C=C2\C(=O)NC(=O)N(c3cccc(Br)c3)C2=O)cc1Cl`, -1%; for `N/C(Cc1ccc([N+](=O)[O-])cc1)=N\OC(=O)c1ccc([N+](=O)[O-])cc1`, -11.5%. For the molecule `COc1ccc(Br)cc1/C=C/C(=O)Nc1ccc(C(C)=O)cc1`, the displacement was -35.6%.

For `CC1(C)Cc2ccccc2C(N/N=C/c2ccc(Cl)cc2)=N1`, the displacement was -3.6%. For `Cc1ccc(NNC(=O)C(O)(c2ccccc2)c2ccccc2)c(Br)c1` the value was -6.3%. For `CC(NC(=O)CN1CCCCC1)C1COc2ccccc2O1` (stereo unspecified) the value was -7.7%. In the case of `COC(=O)C1=C(C)NC(=O)NC1c1ccc(OC(C)C)cc1` (stereo unspecified), the displacement is 0.3%. For `COc1ccccc1NC(=O)c1ccc(N2C(=O)c3ccc([N+](=O)[O-])cc3C2=O)cc1` the value was 3.3%; for `CCC1=NN2C(=N)/C(=C/c3ccc(OC(=O)c4ccc(Cl)cc4)c(OC)c3)C(=O)N=C2S1`, 0.8%.

As to `CCCOc1ccc(C2NC(=O)NC(C)=C2C(=O)OCC2CCCO2)cc1` (stereo unspecified), the displacement is 1.7%.

As for `O=C(NC(NC(=O)c1ccco1)c1ccc(F)cc1)c1ccco1`, the displacement is -13.7%.

For `CC(Oc1ccccc1)C(=O)Nc1ccc(C(N)=O)cc1` (stereo unspecified), the displacement is -4.3%.

As to `Cc1occc1C(=O)N/N=C/c1ccc(Cl)cc1`, the displacement was found to be 3.9%. Turning to `C=CCn1c(SCc2ccc(C(=O)NCCO)cc2)nc2sc(C)c(C)c2c1=O`, the displacement is -5.2%.

Consider `CC1CCN(C(=O)c2ccccc2NC(=O)c2ccco2)CC1`, for which the displacement is 1.7%. For `CCCOc1ccc(N2C(=O)CC(N3CCC(O)CC3)C2=O)cc1` (stereo unspecified) the value was -3.5%. Then `CC1=C(C(=O)OCCc2ccccc2)C(c2ccccc2Cl)NC(=O)N1` (stereo unspecified), with 1.9%; and `COc1ccc(/C=C2\SC(=S)N(Cc3ccco3)C2=O)cc1OC`, with 21.8%. For `N#Cc1c(-c2ccc(Br)cc2)cc(-c2ccc3c(c2)OCO3)c(C#N)c1N` the value was 4.5%.

With `Cc1cc(C)n(-c2ccc3cccc([N+](=O)[O-])c3n2)n1`, the displacement is 2.2%.

In the case of `CCOC(=O)CCc1c(C)nc2cc(-c3ccc(C)cc3)[nH]n2c1=O`, the displacement was -0.8%. Then `Cc1ccc(S(=O)(=O)NCCSc2ccccn2)cc1[N+](=O)[O-]`, with -8.2%; and `CCOc1cc(/C=C/C(=O)O)cc(I)c1OC`, with -15.9%; and `O=C(COc1ccc([N+](=O)[O-])cc1)Nc1ccc2oc(-c3cccc(Cl)c3)nc2c1`, with 12.7%. Regarding `Clc1ccc(Cn2c(CNc3ccc(Cl)cc3)nc3ccccc32)cc1`, the displacement came out at 7.8%. On to `Cc1cc(Br)ccc1N1C(=O)/C(=C/c2cccs2)C(=O)NC1=S`, for which the displacement was -5.1%. Then `CN1CCN(C(=O)c2cc3nc(-c4ccc(Cl)c(Cl)c4)cc(C(F)(F)F)n3n2)CC1`, with -8.1%; and `CCOc1ccc(N2C(=O)NC(=O)/C(=C\c3ccc(-c4ccc([N+](=O)[O-])cc4OC)o3)C2=O)cc1`, with 23%; and `O=C(CCC1CCCCC1)NCCc1ccccc1`, with -3%. For `O=C(NCc1cccnc1)c1cc(-c2ccccc2)nc2ccccc12` the value was -18%. Consider `CCOC(=O)N1CCN(C(=O)Nc2ccc3nc(-c4ccccc4)c(-c4ccccc4)nc3c2)CC1`, for which the displacement was -10.5%. Then `OCCCN=Cc1c(O)n(-c2c(Cl)cccc2Cl)c2ccccc12`, with -8.9%; and `Cc1ccc(N2C(=O)C(Cl)=C(N3CCOCC3)C2=O)c(C)c1`, with 9.2%. `COc1ccc(NC(=O)CN(c2ccc(F)cc2)S(=O)(=O)c2ccccc2)cc1OC`: the displacement was -1.7%. For `CCOc1ccc(N2COc3ccc4ccccc4c3C2)cc1` the value was 9.1%. As to `CCOC(=O)c1c(NC(=O)c2ccccc2OC)sc(C(=O)Nc2ccccc2F)c1C`, the displacement was -2.3%. For the molecule `CCOC(=O)CSc1nsc(SCC(=O)OCC)c1C#N`, the displacement came to 1.8%.

Regarding `COc1ccc(-c2noc(-c3ccc(C(C)(C)C)cc3)n2)cc1OC`, the displacement came to 0.5%. For `CC(=O)COc1ccc2c(-c3ccccc3)cc(=O)oc2c1` the value was 14.2%; for `COc1ccccc1Nc1ncc(F)c(N2CCOCC2)n1`, 6.4%; for `CCC(=O)Nc1ccc(I)cc1Cl`, 7.5%. Then `O=C1c2ccccc2-c2ccc(S(=O)(=O)Nc3ccc(S(=O)(=O)Nc4nccs4)cc3)cc21`, with 4.3%. As to `CC1(C)CC(=O)C(C(/C=C/c2ccccc2)C2=C(O)CC(C)(C)CC2=O)C(=O)C1` (stereo unspecified), the displacement worked out at 6.5%. Turning to `COc1ccc(C2Nc3ccc(C(=O)c4ccccc4)cc3NC3=C2C(=O)CCC3)c(OC)c1` (stereo unspecified), the displacement was -5.3%. In the case of `O=C(N/N=C/CCc1ccccc1)c1cccc([N+](=O)[O-])c1`, the displacement amounted to 0.9%. Then `CCN(CC)c1ccc(/C=C2\SC(=S)NC2=O)c(OC)c1`, with -5%; and `Cc1cc(C)c(OCCN2CCCC2)c(Cl)c1`, with 7.1%; and `CC1=C(C#N)c2nc(N)c(C#N)c(C)c2/C1=C/c1ccc(-c2ccccc2[N+](=O)[O-])o1`, with 1.3%.

On to `O=C(Nc1cccc2nsnc12)c1ccc(Br)o1`, for which the displacement turned out to be 69.6%. In the case of `CCC(C(=O)Nc1cc(Cl)ccc1OC)c1ccccc1` (stereo unspecified), the displacement is -3%.

`COc1cc(OC)c(OC)cc1CNCC1COc2ccccc2O1` (stereo unspecified): the displacement is -9.7%. Then `CCc1ccc2oc(-c3cccc(NC(=O)/C=C/c4cccc([N+](=O)[O-])c4)c3)nc2c1`, with -19.1%; and `O=C(O)CCCN1C(=O)/C(=C\c2cccc(O)c2)SC1=S`, with 0.6%. For `CCOC(=O)c1ccc(Nc2nc3nonc3n3cnnc23)cc1` the value was -10%. Then `Cn1c(C(=O)c2ccccc2)nc2ccccc21`, with 10.1%.

Turning to `N#CSc1cnc(NC2CCCCC2)s1`, the displacement was -5.8%.

Turning to `Cn1c(O)c(N=NC(=O)COc2ccc3ccccc3c2)c2ccccc21`, the displacement worked out at 32.7%. For `Cc1oc2ccc(OCC(=O)OCc3ccccc3)cc2c1C(=O)OC(C)C` the value was 8.1%; for `Cc1ccc(OCC(=O)NCCCN2CCOCC2)c(Br)c1`, 4.3%; for `CN=C(Nc1ccc(I)cc1)SC1CC(=O)N(c2ccccc2F)C1=O` (stereo unspecified), 0.1%. For `COc1cccc(-c2nc(-c3ccccc3)no2)c1` the value was -6.1%. `O=C(O)C1C2CCC(C2)C1C(=O)Nc1nc2ccccc2s1` (stereo unspecified): the displacement came to 1.4%.

Turning to `CS/C(N)=N\N=C\c1cc([N+](=O)[O-])ccc1O`, the displacement was -8.3%. Consider `COc1cccc(OCCOc2ccc(/C=N/n3cnnc3)cc2OC)c1`, for which the displacement was -8.1%. For `O=c1[nH]c(-c2ccc(-c3ccc(F)cc3)o2)nc2sc3c(c12)CCCC3` the value was -13.3%; for `Cc1ccccc1C(=O)Nc1nc2ccc(Cl)cc2s1`, 2.6%.

With `Cc1ccc2oc(-c3ccc(NC(=O)Cc4ccccc4)cc3O)nc2c1`, the displacement turned out to be 7.1%.

As to `Cc1c(C(=O)NCCc2ccccc2)cccc1[N+](=O)[O-]`, the displacement was -8%. For `COC(=O)c1cc(-c2cccs2)nc2ccccc12` the value was -2.7%; for `CC(C)Oc1ccc(/C=N/NC(=O)C(=O)NC2CCCC2)cc1`, 10.8%; for `O=S(=O)(NC(c1cccs1)C(Cl)(Cl)Cl)c1ccc(Cl)cc1` (stereo unspecified), 7%. For `COc1ccc(CCNC(=O)CSc2nc3ccccc3s2)cc1OC` the value was 0.6%. With `CC(=O)Nc1sc(C(=O)OC(C)C)c(C)c1C(N)=O`, the displacement is -1.2%.
